Results reported in PubChem BioAssay AID360 (National Center for Advancing Translational Sciences (NCATS), 2006).
Out of some 48,000 compounds screened, about 550 (1.1%) were called active. Inconclusive results (about 4%) are left out. Cut-off read from the data, not from the text of the source: active = potency below about 15 µM; inconclusive = mostly about 16 µM to 33 µM; inactive = weaker than that. The list shows a part of the results.

target: Lysosomal acid glucosylceramidase (Homo sapiens) (UniProt P04062); assay: Glucocerebrosidase; conditions: purified enzyme, resorufin glucoside fluorescence (screen aimed at inhibitors), 20 min; series mostly up to 77 µM;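 note: the screen sought inhibitors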
Outline: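 Normal human glucocerebrosidase (0.2 nM final) was assayed with resorufin β-D-glucopyranoside (30 uM final) in 50mM citric acid/KH2PO4, 10mM sodium taurocholate, 0.01% tween-20, pH 5.9. Compounds were titrated; fluorescence (Ex 548, Em 600) read after 20 min at RT.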
Potency is the fitted concentration of half-maximal effect.

UniProt P04062, sequence (P04062 whole entry, looked up): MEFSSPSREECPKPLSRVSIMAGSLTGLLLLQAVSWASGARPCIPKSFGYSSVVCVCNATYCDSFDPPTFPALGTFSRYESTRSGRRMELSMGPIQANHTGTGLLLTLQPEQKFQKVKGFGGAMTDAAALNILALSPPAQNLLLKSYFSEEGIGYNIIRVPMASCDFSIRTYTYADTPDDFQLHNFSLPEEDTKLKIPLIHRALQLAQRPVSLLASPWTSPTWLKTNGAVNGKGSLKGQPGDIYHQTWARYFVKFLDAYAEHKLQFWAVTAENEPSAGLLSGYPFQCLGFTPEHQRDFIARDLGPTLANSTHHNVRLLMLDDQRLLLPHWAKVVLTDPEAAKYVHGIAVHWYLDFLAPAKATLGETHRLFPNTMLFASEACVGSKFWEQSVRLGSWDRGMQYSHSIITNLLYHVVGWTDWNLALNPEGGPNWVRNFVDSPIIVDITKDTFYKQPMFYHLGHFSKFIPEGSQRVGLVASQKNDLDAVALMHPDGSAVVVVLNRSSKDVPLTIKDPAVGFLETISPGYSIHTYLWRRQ

Potency, inactive:
COC(=O)c1sc(NC(=O)CSc2nc3cccnc3n2C2CCCCC2)nc1C > 76.9 µM
Cc1cccc(-c2noc(Cc3ccc(Cl)cc3)n2)c1 > 76.9 µM
CCOC(=O)c1nnc2cc(-c3ccc(Br)cc3)nn2c1C > 76.9 µM
O=C(O)C1CC(=O)N(Cc2ccc(F)cc2)C1 (configuration not stated) > 76.9 µM
COc1ccc(C2C(=O)c3ccccc3C2=O)c(OC)c1 > 76.9 µM
CN(C)C(=O)N1CCC(C(=O)NC2CCCCCCC2)CC1 > 76.9 µM
CCCn1nnc(NC(=O)COc2ccc(C3CCCCC3)cc2)n1 > 76.9 µM
CCOc1cc(C)nc(N2CCN(C3CCCCC3)CC2)n1 > 76.9 µM
CC(=O)c1ccc(-n2nncc2C)cc1 > 76.9 µM
CCn1cc(CNC(=O)C2C3CCC(C3)C2C(=O)O)cn1 (configuration not stated) > 76.9 µM
Nc1ccn(-c2ccc(Cl)cc2)c(=O)c1 > 76.9 µM
Cc1ccc(S(=O)(=O)NCCCNS(C)(=O)=O)cc1 > 76.9 µM
CCOC(=O)c1c(C)c(C(=O)NCc2ccc3c(c2)OCO3)c(C)n1CC > 76.9 µM
CCc1c(C)c2c(C)[nH]nc2oc1=O > 76.9 µM
COc1ccc(CNc2n[nH]c(NCc3ccc(OC)c(OC)c3)n2)cc1OC > 76.9 µM
Cc1ccc(-n2nnnc2SCC(=O)c2cc(C)n(CC3CCCO3)c2C)cc1 (configuration not stated) > 76.9 µM
COc1ccc(NS(=O)(=O)c2ccc(Br)s2)cc1OC > 76.9 µM
COc1ccc2cnn(Cc3ccccc3)c(=O)c2c1OC > 76.9 µM
Cc1cc(C)cc(C(=O)/C=C2\NC(=O)CS2)c1 > 76.9 µM
CCn1c(COc2ccccc2C)nnc1SCC(=O)Nc1cc(C)on1 > 76.9 µM
O=C(c1c(O)c2ccccc2oc1=O)C1CCC1 > 76.9 µM
O=C(COC(=O)CCC1CCCC1)Nc1ccc(Cl)cn1 > 76.9 µM
O=C(CN1CCN(c2ccc(Cl)cc2)CC1)c1ccc2c(c1)OCO2 > 76.9 µM
COc1ccc(OC)c(S(=O)(=O)Nc2c(F)cccc2F)c1 > 76.9 µM
COc1ccc2c(c1)C=CC1(O2)N(CCO)c2ccccc2C1(C)C (configuration not stated) > 76.9 µM
CC(C)CCn1nnnc1C(c1ccccc1)N1CCC(C(N)=O)CC1 (configuration not stated) > 76.9 µM
Cc1ccc2cc(CN(Cc3ccco3)C(=O)NCc3ccccc3)c(=O)[nH]c2c1C > 76.9 µM
